Results published in the supplement of paper PMC8728848.
This is one part of the list.

Legend:
Assay in all cases: glycan array binding signal (z-score within array); higher = stronger binding
Settings in all cases: glycan notation: IUPAC condensed, linker removed
[1] = molecular target: Gal(a1-6)Glc
Procedure, shortened: (§1)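 The binding signal is a Z-score computed within each array. Data were drawn from 3228 arrays in the Consortium for Functional Glycomics database, restricted to those with a known protein sequence. Scores were averaged over arrays of the same protein sequence at different concentrations or buffers, and over linkers, and negative values can be taken as non-binding.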

[2] = molecular target: Gal(b1-2)Gal
Procedure, shortened: as §1

[3] = molecular target: Gal(b1-3)Gal
Procedure, shortened: as §1

[4] = molecular target: Gal(b1-3)Gal(b1-4)GlcNAc
Procedure, shortened: as §1

[5] = molecular target: Gal(b1-3)GalNAc
Procedure, shortened: as §1

[6] = molecular target: Gal(b1-3)GalNAc(a1-3)[Fuc(a1-2)]Gal(b1-4)Glc
Procedure, shortened: as §1

[7] = molecular target: Gal(b1-3)GalNAc(a1-3)[Fuc(a1-2)]Gal(b1-4)GlcNAc
Procedure, shortened: as §1

[8] = molecular target: Gal(b1-3)GalNAc(b1-3)Gal
Procedure, shortened: as §1

[9] = molecular target: Gal(b1-3)GalNAc(b1-3)Gal(a1-4)Gal(b1-4)Glc
Procedure, shortened: as §1

[10] = molecular target: Gal(b1-3)GalNAc(b1-4)Gal(b1-4)Glc
Procedure, shortened: as §1

[11] = molecular target: Gal(b1-3)GalNAc(b1-4)[Neu5Ac(a2-3)]Gal(b1-4)Glc
Procedure, shortened: as §1

[12] = molecular target: Gal(b1-3)GlcNAc
Procedure, shortened: as §1

[13] = molecular target: Gal(b1-3)GlcNAc(a1-3)Gal(b1-4)GlcNAc
Procedure, shortened: as §1

[14] = molecular target: Gal(b1-3)GlcNAc(a1-6)Gal(b1-4)GlcNAc
Procedure, shortened: as §1

[15] = molecular target: Gal(b1-3)GlcNAc(b1-2)Man
Procedure, shortened: as §1

[16] = molecular target: Gal(b1-3)GlcNAc(b1-2)Man(a1-3)[Gal(b1-3)GlcNAc(b1-2)Man(a1-6)]Man(b1-4)GlcNAc(b1-4)GlcNAc
Procedure, shortened: as §1

[17] = molecular target: Gal(b1-3)GlcNAc(b1-2)Man(a1-3)[Gal(b1-3)GlcNAc(b1-2)Man(a1-6)]Man(b1-4)GlcNAc(b1-4)[Fuc(a1-6)]GlcNAc
Procedure, shortened: as §1

[18] = molecular target: Gal(b1-3)GlcNAc(b1-2)Man(a1-3)[GlcNAc(b1-4)][Gal(b1-3)GlcNAc(b1-2)Man(a1-6)]Man(b1-4)GlcNAc(b1-4)GlcNAc
Procedure, shortened: as §1

[19] = molecular target: Gal(b1-3)GlcNAc(b1-2)[Gal(b1-3)GlcNAc(b1-6)]Man(a1-6)[Gal(b1-3)GlcNAc(b1-2)Man(a1-3)]Man(b1-4)GlcNAc(b1-4)GlcNAc
Procedure, shortened: as §1

[20] = molecular target: Gal(b1-3)GlcNAc(b1-3)Gal(b1-3)GlcNAc
Procedure, shortened: as §1

[21] = molecular target: Gal(b1-3)GlcNAc(b1-3)Gal(b1-4)Glc
Procedure, shortened: as §1

[22] = molecular target: Gal(b1-3)GlcNAc(b1-3)Gal(b1-4)GlcNAc
Procedure, shortened: as §1

[23] = molecular target: Gal(b1-3)GlcNAc(b1-3)Gal(b1-4)GlcNAc(b1-2)Man(a1-3)[Gal(b1-3)GlcNAc(b1-3)Gal(b1-4)GlcNAc(b1-2)Man(a1-6)]Man(b1-4)GlcNAc(b1-4)GlcNAc
Procedure, shortened: as §1

[24] = molecular target: Gal(b1-3)GlcNAc(b1-3)Gal(b1-4)GlcNAc(b1-2)[Gal(b1-3)GlcNAc(b1-3)Gal(b1-4)GlcNAc(b1-6)]Man(a1-6)[Gal(b1-3)GlcNAc(b1-3)Gal(b1-4)GlcNAc(b1-2)Man(a1-3)]Man(b1-4)GlcNAc(b1-4)[Fuc(a1-6)]GlcNAc
Procedure, shortened: as §1

[25] = molecular target: Gal(b1-3)GlcNAc(b1-3)Gal(b1-4)GlcNAc(b1-3)Gal(b1-4)GlcNAc(b1-2)[Gal(b1-3)GlcNAc(b1-3)Gal(b1-4)GlcNAc(b1-3)Gal(b1-4)GlcNAc(b1-6)]Man(a1-6)[Gal(b1-3)GlcNAc(b1-3)Gal(b1-4)GlcNAc(b1-3)Gal(b1-4)GlcNAc(b1-2)Man(a1-3)]Man(b1-4)GlcNAc(b1-4)[Fuc(a1-6)]GlcNAc
Procedure, shortened: as §1

[26] = molecular target: Gal(b1-3)GlcNAc(b1-3)Gal(b1-4)GlcNAc(b1-6)[Gal(b1-3)GlcNAc(b1-3)]Gal(b1-4)Glc
Procedure, shortened: as §1

[27] = molecular target: Gal(b1-3)GlcNAc(b1-3)Gal(b1-4)[Fuc(a1-3)]GlcNAc
Procedure, shortened: as §1

[28] = molecular target: Gal(b1-3)GlcNAc(b1-3)Gal(b1-4)[Fuc(a1-3)]GlcNAc(b1-6)[Gal(b1-3)GlcNAc(b1-3)]Gal(b1-4)Glc
Procedure, shortened: as §1

[29] = molecular target: Gal(b1-3)GlcNAc(b1-3)GalNAc
Procedure, shortened: as §1

[30] = molecular target: Gal(b1-3)GlcNAc(b1-6)Gal(b1-4)GlcNAc
Procedure, shortened: as §1

[31] = molecular target: Gal(b1-3)GlcNAc(b1-6)GalNAc
Procedure, shortened: as §1

[32] = molecular target: Gal(b1-3)GlcNAc(b1-6)[Gal(b1-3)]GalNAc
Procedure, shortened: as §1

[33] = molecular target: Gal(b1-3)GlcNAc6S
Procedure, shortened: as §1

[34] = molecular target: Gal(b1-3)[Fuc(a1-4)]GlcNAc
Procedure, shortened: as §1

[35] = molecular target: Gal(b1-3)[Fuc(a1-4)]GlcNAc(b1-2)Man
Procedure, shortened: as §1

[36] = molecular target: Gal(b1-3)[Fuc(a1-4)]GlcNAc(b1-2)Man(a1-3)[Gal(b1-3)[Fuc(a1-4)]GlcNAc(b1-2)Man(a1-6)]Man(b1-4)GlcNAc(b1-4)[Fuc(a1-6)]GlcNAc
Procedure, shortened: as §1

[37] = molecular target: Gal(b1-3)[Fuc(a1-4)]GlcNAc(b1-3)Gal(b1-3)[Fuc(a1-4)]GlcNAc
Procedure, shortened: as §1

[38] = molecular target: Gal(b1-3)[Fuc(a1-4)]GlcNAc(b1-3)Gal(b1-4)[Fuc(a1-3)]GlcNAc
Procedure, shortened: as §1

[39] = molecular target: Gal(b1-3)[Fuc(a1-4)]GlcNAc(b1-6)GalNAc
Procedure, shortened: as §1

[40] = molecular target: Gal(b1-3)[GlcNAc(b1-6)]GalNAc
Procedure, shortened: as §1

[41] = molecular target: Gal(b1-3)[Neu5Ac(a2-6)]GalNAc
Procedure, shortened: as §1

[42] = molecular target: Gal(b1-3)[Neu5Ac(a2-6)]GlcNAc(b1-4)Gal(b1-4)Glc
Procedure, shortened: as §1

[43] = molecular target: Gal(b1-3)[Neu5Ac(b2-6)]GalNAc
Procedure, shortened: as §1

[44] = molecular target: Gal(b1-4)Gal
Procedure, shortened: as §1

[45] = molecular target: Gal(b1-4)GalNAc(a1-3)[Fuc(a1-2)]Gal(b1-4)GlcNAc
Procedure, shortened: as §1

B1: LBL-152 (Laetiporus bicolor), B0D650 (protein)
chain: MSNEYNPPLGIAFRLCGLASDRVLFSRVSPSPEVFHHPKSEVYPDQWFVAIPGSGQNAGCYAIKSKNTGKVLFSRMSPDPRVGHIDGDGKYPDNWFKFEAGSGKYAGYFRLRAVASDTVLVSRTSTGTDTQVINYPATSAKYDDQYFTILFDHHHHHH
[1]
  glycan array binding signal (z-score): -0.163
[2]
  glycan array binding signal (z-score): -0.147
[3]
  glycan array binding signal (z-score): -0.153
[4]
  glycan array binding signal (z-score): -0.158
[5]
  glycan array binding signal (z-score): -0.156
[6]
  glycan array binding signal (z-score): -0.149
[7]
  glycan array binding signal (z-score): -0.153
[8]
  glycan array binding signal (z-score): -0.16
[9]
  glycan array binding signal (z-score): -0.158
[10]
  glycan array binding signal (z-score): -0.143
[11]
  glycan array binding signal (z-score): -0.146
[12]
  glycan array binding signal (z-score): -0.147
[13]
  glycan array binding signal (z-score): -0.14
[14]
  glycan array binding signal (z-score): -0.157
[15]
  glycan array binding signal (z-score): -0.152
[16]
  glycan array binding signal (z-score): -0.154
[17]
  glycan array binding signal (z-score): -0.153
[18]
  glycan array binding signal (z-score): -0.154
[19]
  glycan array binding signal (z-score): -0.148
[20]
  glycan array binding signal (z-score): -0.154
[21]
  glycan array binding signal (z-score): -0.155
[22]
  glycan array binding signal (z-score): -0.155
[23]
  glycan array binding signal (z-score): -0.136
[24]
  glycan array binding signal (z-score): -0.14
[25]
  glycan array binding signal (z-score): -0.044
[26]
  glycan array binding signal (z-score): -0.15
[27]
  glycan array binding signal (z-score): -0.149
[28]
  glycan array binding signal (z-score): -0.155
[29]
  glycan array binding signal (z-score): -0.152
[30]
  glycan array binding signal (z-score): -0.156
[31]
  glycan array binding signal (z-score): -0.151
[32]
  glycan array binding signal (z-score): -0.155
[33]
  glycan array binding signal (z-score): -0.151
[34]
  glycan array binding signal (z-score): -0.152
[35]
  glycan array binding signal (z-score): -0.159
[36]
  glycan array binding signal (z-score): -0.15
[37]
  glycan array binding signal (z-score): -0.16
[38]
  glycan array binding signal (z-score): -0.154
[39]
  glycan array binding signal (z-score): -0.157
[40]
  glycan array binding signal (z-score): -0.147
[41]
  glycan array binding signal (z-score): -0.156
[42]
  glycan array binding signal (z-score): -0.155
[43]
  glycan array binding signal (z-score): -0.154
[44]
  glycan array binding signal (z-score): -0.161
[45]
  glycan array binding signal (z-score): -0.163
